{"source": "PubChem BioAssay AID504332", "about": "(National Center for Advancing Translational Sciences (NCATS), 2011)", "note": "Several values for one entry are separate records, joined by “and”; a condition that tells them apart may be missing. Identical values can stand only once. The campaign covered roughly 350,000 compounds. About 31,000 (8.9%) were called active. This list was built around the results that the source calls inconclusive (neither active nor inactive); the mix of calls is not that of the screen. Calls follow the shape of the dose curve; as a rule, active = well fitted inhibition curve with a large enough effect; inconclusive = small, poorly fitted or top-dose-only effect; inactive = no such curve, though single readings can be large or run the other way. Potencies beside an inconclusive call are fits to weak or partial responses and may not hold up. % is scaled to controls: 0 for no effect and ±100 for the full control effect; potency is read from the fitted curve at half-maximal effect; tags tell the direction and shape of the fitted curve.", "data": [{"biological_target": "Histone-lysine N-methyltransferase EHMT2 (Homo sapiens) (UniProt Q96KQ7)", "sequence (Q96KQ7 whole entry, looked up)": "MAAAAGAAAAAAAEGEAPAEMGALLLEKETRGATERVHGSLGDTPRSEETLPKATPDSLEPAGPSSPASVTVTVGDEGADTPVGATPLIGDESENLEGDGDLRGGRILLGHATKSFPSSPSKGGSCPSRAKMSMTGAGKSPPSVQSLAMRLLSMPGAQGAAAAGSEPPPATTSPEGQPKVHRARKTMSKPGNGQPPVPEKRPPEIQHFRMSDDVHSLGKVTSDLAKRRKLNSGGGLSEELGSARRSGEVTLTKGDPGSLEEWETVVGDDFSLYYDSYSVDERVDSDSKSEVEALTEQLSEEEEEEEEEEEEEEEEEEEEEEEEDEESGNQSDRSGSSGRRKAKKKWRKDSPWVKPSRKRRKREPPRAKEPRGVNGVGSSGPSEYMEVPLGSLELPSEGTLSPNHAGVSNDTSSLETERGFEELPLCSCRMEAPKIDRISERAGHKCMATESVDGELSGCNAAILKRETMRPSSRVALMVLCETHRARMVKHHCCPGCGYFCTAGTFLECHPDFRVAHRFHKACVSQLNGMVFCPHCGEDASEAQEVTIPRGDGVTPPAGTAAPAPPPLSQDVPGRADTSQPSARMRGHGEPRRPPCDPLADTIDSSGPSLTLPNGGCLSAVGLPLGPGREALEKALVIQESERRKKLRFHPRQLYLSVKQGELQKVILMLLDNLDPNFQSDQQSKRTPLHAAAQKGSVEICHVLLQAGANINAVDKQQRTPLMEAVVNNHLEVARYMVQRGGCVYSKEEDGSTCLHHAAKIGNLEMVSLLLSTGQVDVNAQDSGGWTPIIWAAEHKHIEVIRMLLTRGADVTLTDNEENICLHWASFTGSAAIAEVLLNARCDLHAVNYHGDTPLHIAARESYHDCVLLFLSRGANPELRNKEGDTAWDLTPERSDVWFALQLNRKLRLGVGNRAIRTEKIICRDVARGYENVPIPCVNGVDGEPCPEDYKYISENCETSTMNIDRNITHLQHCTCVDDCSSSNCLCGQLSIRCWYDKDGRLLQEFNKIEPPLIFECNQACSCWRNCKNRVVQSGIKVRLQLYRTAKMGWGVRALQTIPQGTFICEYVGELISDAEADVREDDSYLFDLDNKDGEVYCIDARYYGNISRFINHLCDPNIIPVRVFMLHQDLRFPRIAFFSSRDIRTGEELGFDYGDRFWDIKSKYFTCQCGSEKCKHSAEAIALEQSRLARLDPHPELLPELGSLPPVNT", "assay": "qHTS Assay for Inhibitors of Histone Lysine Methyltransferase G9a; also: nearly all actives have a fitted effect of over 75% in size", "conditions": "G9a H3K9 monomethylation, AlphaScreen, 2 h; activity, negative = inhibition: at 59 µM (top of the series) unless noted", "in_short": "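G9a (20 nM) was preincubated 15 min with compound, then reacted 2 h at room temperature with 500 nM biotin-H3K9 peptide and 20 µM SAM. Monomethyl-H3K9 detected by AlphaScreen using anti-H3K9me1 antibody.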", "values": [{"smiles": "CCOc1ccc(N(CC(=O)NC(C)(C)C)S(=O)(=O)c2c(C)noc2C)cc1", "Potency": "inconclusive: 11.2 µM [inhibitor, partial curve, poor fit]"}, {"smiles": "C=CCNC(=S)N/N=C(\\C)c1ccc(OC)cc1", "activity, negative = inhibition": "inactive: 24.1%"}, {"smiles": "CCC(=O)Nc1ccc(N2CCCCC2)c(C(=O)Nc2ccc(OC)cc2)c1", "activity, negative = inhibition": "inactive: 69.8% [at 102 µM]"}, {"smiles": "CC(=O)C1=C(O)C(=O)N(CCC(=O)O)C1c1cccc(F)c1", "note": "(centres undefined)", "Potency": "inconclusive: 1.58 µM [inhibitor, single point]"}, {"smiles": "Cn1c(=O)c(C(N)=S)cn(-c2ccccc2)c1=O", "Potency": "inconclusive: 89.1 µM [inhibitor, single point]"}, {"smiles": "COc1ccc(/C=C2\\SC(=S)N(NS(=O)(=O)c3ccccc3)C2=O)c(OC)c1", "Potency": "inconclusive: 79.4 µM [inhibitor, single point]"}, {"smiles": "Cn1cccc1/C=N/NC(=O)c1ccn[nH]1", "Potency": "inconclusive: 70.8 µM [inhibitor, partial curve, poor fit]"}, {"smiles": "Cc1cc2[nH]c(=O)cc(-c3ccccc3)n2n1", "Potency": "inconclusive: 70.8 µM [inhibitor, partial curve, poor fit]"}, {"smiles": "C[C@H](O)C(=O)C1=Nc2c(nc(N)[nH]c2=O)NC1", "Potency": "inconclusive: 79.4 µM [inhibitor, single point] and inconclusive: 10 µM [inhibitor, partial curve] and inconclusive: 23.8 µM [inhibitor, partial curve, poor fit]"}, {"smiles": "CCN(CC)S(=O)(=O)c1cc(NS(=O)(=O)c2ccccc2)ccc1C", "Potency": "inconclusive: 0.794 µM [inhibitor, partial curve, poor fit]"}, {"smiles": "C/C(CC(=O)NC12CC3CC(CC(C3)C1)C2)=N\\NC(=O)c1cnccn1", "activity, negative = inhibition": "inactive: -2.35%"}, {"smiles": "COC(=O)c1ccccc1NC(=O)c1cccnc1", "activity, negative = inhibition": "inactive: -3.2% [at 0.501 µM]"}, {"smiles": "CCN(CC)CCNC(=O)c1[nH]c2ccc(OCc3ccccc3)cc2c1C", "Potency": "active: 50.1 µM"}, {"smiles": "Cc1cc2nc(C3CCN(C(=S)NCC(C)C)CC3)[nH]c2cc1C", "Potency": "inconclusive: 70.8 µM [inhibitor, single point]"}, {"smiles": "Cn1nnnc1SCC1=C(C(=O)O)N2C(=O)C(NC(=O)C3CC3c3ccccc3)C2SC1", "note": "(centres undefined)", "Potency": "inconclusive: 44.7 µM [inhibitor, partial curve, poor fit]"}, {"smiles": "CN(C)c1ccc(C(=O)Nc2ccc(S(=O)(=O)NC3=NCCCCC3)cc2)cc1", "Potency": "inconclusive: 89.1 µM [inhibitor, single point]"}, {"smiles": "O=C1C(=C2CCCCC2)SC(=S)N1Cc1ccco1", "Potency": "active: 35.5 µM"}, {"smiles": "CC1CCCN(c2ccc([N+](=O)[O-])s2)C1", "note": "(centres undefined)", "Potency": "active: 25.1 µM"}, {"smiles": "O=C(NCCc1ccc(Cl)cc1)c1ccc2ccccc2n1", "Potency": "inconclusive: 89.1 µM [inhibitor, single point]"}, {"smiles": "CC(C)c1nc(SCC(=O)Nc2ccc(C(=O)O)cc2)c2c3c(sc2n1)CCCC3", "activity, negative = inhibition": "inactive: -22.4% [at 102 µM]"}, {"smiles": "COc1ccc(S(=O)(=O)CCC(=O)Nc2c(C)cccc2C)cc1", "Potency": "active: 39.8 µM"}, {"smiles": "CCN1CCN(C(=O)c2ccc(CNS(=O)(=O)c3cccc(OC)c3)cc2)CC1", "Potency": "active: 44.7 µM"}, {"smiles": "COc1ccccc1S(=O)(=O)Cc1ccc(C(=O)N2CCN(c3cc(Cl)ccc3C)CC2)o1", "activity, negative = inhibition": "inactive: -34%"}, {"smiles": "O=C(c1ccc2c(c1)OCCO2)N1CCN(c2ccc([N+](=O)[O-])cc2)CC1", "Potency": "inconclusive: 70.8 µM [inhibitor, partial curve, poor fit]"}, {"smiles": "CCS(=O)c1ccccc1C(=O)OC(C)C(=O)Nc1ccc(S(=O)(=O)N2CCCC2)cc1", "note": "(centres undefined)", "Potency": "inconclusive: 35.5 µM [inhibitor, partial curve, poor fit]"}, {"smiles": "CCOc1ccc(S(=O)(=O)NCCC(=O)N(C)Cc2ccc(C)o2)cc1", "activity, negative = inhibition": "inactive: 2.49% [at 0.501 µM]"}, {"smiles": "CCOC(=O)c1c(-c2ccccc2)csc1NC(=O)CSc1nc(N)cc(N)n1", "Potency": "inconclusive: 15.8 µM [inhibitor, partial curve, poor fit]"}, {"smiles": "O=[N+]([O-])c1ccc(NC2CCN(Cc3ccccc3)CC2)c([N+](=O)[O-])c1", "Potency": "inconclusive: 28.2 µM [inhibitor, full curve]"}, {"smiles": "CCc1ccccc1NC(=O)COCc1cc(-c2ccco2)on1", "Potency": "inconclusive: 31.6 µM [inhibitor, partial curve]"}, {"smiles": "Nc1nc(-c2ccc(Br)s2)c(Br)s1", "activity, negative = inhibition": "inconclusive: -76.5% [inhibitor]"}, {"smiles": "COc1ccc(CCNc2ccc(C(CC(N)=O)NC(=O)c3cc(OC)ccc3OC)cc2[N+](=O)[O-])cc1", "note": "(centres undefined)", "Potency": "active: 44.7 µM"}, {"smiles": "C/C(=N\\NC(=O)CN(c1ccc(C)cc1)S(C)(=O)=O)c1cccs1", "activity, negative = inhibition": "inactive: -4.23% [at 102 µM]"}, {"smiles": "COc1cc(C2CC(=O)Nc3ccc4ccccc4c32)ccc1OC(=O)C(C)C", "note": "(centres undefined)", "Potency": "inconclusive: 22.4 µM [inhibitor, partial curve, poor fit]"}, {"smiles": "C(=C\\c1ccccc1)/C=N/N1CCN(c2ccccn2)CC1", "Potency": "inconclusive: 39.8 µM [inhibitor, full curve]"}, {"smiles": "Cc1ccc(-n2c(CCC(=O)O)ccc2-c2cccs2)cc1Cl", "Potency": "active: 12.6 µM"}, {"smiles": "CCOc1ccc(OCC)c(NC(=O)CCNS(=O)(=O)c2cc(Br)cnc2N)c1", "activity, negative = inhibition": "inactive: -45.6% [at 102 µM]"}, {"smiles": "COC(=O)C(C)Sc1ccc2nnc(-c3ccccc3)n2n1", "note": "(centres undefined)", "Potency": "inconclusive: 79.4 µM [inhibitor, single point]"}, {"smiles": "Cn1c(Cc2c[nH]c3ccccc23)n[nH]c1=S", "Potency": "inconclusive: 3.55 µM [inhibitor, full curve, poor fit]"}, {"smiles": "CCCCCC1CCC(C(=O)NCCN2CCOCC2)CC1", "note": "(centres undefined)", "Potency": "inconclusive: 89.1 µM [inhibitor, single point]"}, {"smiles": "Cc1cc(O)c(C(c2ccccc2)N2CCN(c3ccc(F)cc3)CC2)c(=O)n1Cc1ccco1", "note": "(centres undefined)", "Potency": "inconclusive: 39.8 µM [inhibitor, single point]"}, {"smiles": "C/C(=N\\NC(=O)c1ccco1)c1ccc(-c2ccccc2)cc1", "Potency": "inconclusive: 22.4 µM [inhibitor, single point]"}, {"smiles": "CN1CCN(C2=C(Cl)C(=O)N(c3ccc(Cl)cc3)C2=O)CC1", "Potency": "active: 5.01 µM"}, {"smiles": "O=C(c1ccco1)N(Cc1cccs1)c1ccc(F)cc1", "activity, negative = inhibition": "inactive: -3.51%"}, {"smiles": "CN(C)N=C1c2cc(S(=O)(=O)N3CCOCC3)ccc2-c2ccc(S(=O)(=O)N3CCOCC3)cc21", "Potency": "active: 20 µM"}, {"smiles": "COc1cccc(CNC(=O)c2ccc(-n3c(C)cc4c3CCCC4)cc2)c1", "Potency": "inconclusive: 20 µM [inhibitor, partial curve, poor fit]"}, {"smiles": "Cc1noc(-c2ccccc2OCC(=O)Nc2ccccc2[N+](=O)[O-])n1", "Potency": "inconclusive: 8.91 µM [inhibitor, partial curve, poor fit]"}, {"smiles": "CCc1ccc(C(=O)CC2(O)C(=O)N(Cc3ccc(C)cc3)c3ccccc32)cc1", "note": "(centres undefined)", "Potency": "active: 5.62 µM"}, {"smiles": "CC(C)C(=O)NNS(=O)(=O)c1ccccc1", "activity, negative = inhibition": "inactive: -2.5% [at 102 µM]"}, {"smiles": "Cc1cccc(NC(=S)NC2CCCC2)n1", "activity, negative = inhibition": "inactive: -117% [at 102 µM]"}, {"smiles": "CC(=O)Nc1ccc(N=Cc2c(O)c(C(=O)Nc3ccccc3)cc3ccccc23)cc1", "Potency": "inconclusive: 28.2 µM [inhibitor, partial curve, poor fit]"}, {"smiles": "CC(C)(C)c1ccc(C(=O)N2CCCC(c3nc4c(nnn4Cc4cccc(F)c4)c(=O)[nH]3)C2)cc1", "note": "(centres undefined)", "activity, negative = inhibition": "inactive: -10.1%"}, {"smiles": "CCCCOc1ccccc1C(=O)N(Cc1sccc1C)C1CCS(=O)(=O)C1", "note": "(centres undefined)", "activity, negative = inhibition": "inactive: -7.07%"}, {"smiles": "COc1ccc2cc(CNc3ccc(C)cc3)c(=O)n(CC(=O)Nc3ccc(C)cc3Cl)c2c1", "activity, negative = inhibition": "inactive: 5.75%"}, {"smiles": "Cc1ccc(Nc2nc(-c3cccnc3)cs2)cc1C", "activity, negative = inhibition": "inactive: -7.86% [at 2.33 µM]"}, {"smiles": "CCN1C=CC2=C(C#N)C(N)C(C#N)(C#N)C(c3ccccc3C(F)(F)F)C2C1", "note": "(centres undefined)", "Potency": "inconclusive: 28.2 µM [inhibitor, single point]"}, {"smiles": "CC(C)(C)NC(=O)NC(=O)CSc1ccc(S(=O)(=O)N2CCOCC2)cn1", "Potency": "active: 5.62 µM"}, {"smiles": "CCOc1cccc(CN2CCCC(C(=O)c3cccc(C(F)(F)F)c3)C2)c1O", "note": "(centres undefined)", "Potency": "inconclusive: 50.1 µM [inhibitor, partial curve]"}, {"smiles": "COc1ccc(C2N(c3cc(C)on3)C(=O)C3CCCN32)cc1OC", "note": "(centres undefined)", "Potency": "inconclusive: 28.2 µM [inhibitor, single point]"}, {"smiles": "CCNC(=O)NC(=O)C(C)Oc1ccc(C(=O)OC)cc1", "note": "(centres undefined)", "Potency": "inconclusive: 20 µM [inhibitor, partial curve, poor fit]"}, {"smiles": "O=C(O)c1ccccc1NC(=O)c1cc2ccccc2oc1=O", "Potency": "active: 50.1 µM"}, {"smiles": "Cc1nn(-c2ccccc2)c(OC(=O)c2ccc(Cl)cc2)c1S(=O)(=O)c1ccccc1", "Potency": "inconclusive: 39.8 µM [inhibitor, single point]"}, {"smiles": "COc1ccc(/C=N/NC(=O)c2nn(-c3ccc(Cl)cc3)c(=O)c3c(N)scc23)cc1", "Potency": "inconclusive: 1.26 µM [inhibitor, full curve, poor fit]"}, {"smiles": "CCOc1ccccc1C(=O)N1CCc2cc(OC)c(OC)cc2C1COc1ccc(OC)cc1", "note": "(centres undefined)", "activity, negative = inhibition": "inactive: -33.7%"}, {"smiles": "O=C(N1CCN(Cc2ccc3c(c2)OCO3)CC1)C(Cl)(Cl)Cl", "Potency": "inconclusive: 70.8 µM [inhibitor, partial curve]"}, {"smiles": "Cc1ccc(-c2nc3cccc(C)n3c2Nc2ccc3c(c2)OCO3)o1", "Potency": "active: 17.8 µM"}, {"smiles": "CN(C)c1ccc(CN2CCCCC2)cc1", "Potency": "inconclusive: 89.1 µM [inhibitor, single point]"}, {"smiles": "Cc1cc(OC(C)C(=O)NCC2CCCO2)cc(C)c1Cl", "note": "(centres undefined)", "activity, negative = inhibition": "inactive: -9.04% [at 12.7 µM]"}, {"smiles": "Cc1ccc(C(C)C)c(OCCCn2ccnc2C)c1", "Potency": "active: 10 µM"}, {"smiles": "CN1C(=O)/C(=C/c2ccccc2OCc2ccc(C(=O)O)cc2)NC1=S", "Potency": "inconclusive: 56.2 µM [inhibitor, partial curve, poor fit]"}]}]}
